This passage reports antibody binding signal results from the supplement of paper PMC10441789.

The list shows a part of the results. Antibody binding of pooled human sera (four to six donors per pool; dilution not stated) to peptides of the Trypanosoma cruzi antigen TSSA on microarrays. Quantile-normalised fluorescence in arbitrary units, mean of duplicate arrays; higher = more binding. No active / inactive call. The uninfected pools are read here as the healthy donors of the same country. The strongest signals lie near the top of the scale (about 60,000).

The subject of the assay is pooled sera of uninfected people, Brazil. Briefly: antibody binding signal (normalised fluorescence) (arbitrary fluorescence units); higher = stronger serum antibody binding to peptide. The protocol:
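Microarray of overlapping 15-residue peptides of the four Trypanosoma cruzi TSSA reference variants and 8- to 13-residue peptides of TSSAII 24-62, probed with one serum pool per country.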
As to TGEAPSQPGASSG, the antibody binding signal was 257.
Next, TPPSGTENKPA: 621.
On to EKKAAAGEAPSPSGA, for which the antibody binding signal turned out to be 122.
As for QPGASSGEAEASSNK, the figure is 124; as for PSGTENKPATGEA, 368.
In turn, TANGGSTS returned an antibody binding signal of 248.
As for ASSGEAEASSNKNDG, the figure is 147; as for GGSTSSTPPSG, 550.
Next, ATGEAPSQ: 105.
As for ENKPATGEAPS, the figure is 244.
APSQPGASSGEAE: the antibody binding signal is 99.8.
In the case of DKKTAAGGTPSPSGA, the antibody binding signal was 1250.
The sequence SACTTANGGSTISTP showed an antibody binding signal of 117.
TGEAPSQPGAS registered an antibody binding signal of 180.
As for NKPATGEAPSQP, the figure is 514; as for GSTISTPPSGTDKKT, 185; as for NKPATGEA, 314.
Next, ENKPATGE: 139.
As for TTANGGSTISTPPSG, the figure is 220.
Turning to STPPSGTENKPATGE, the antibody binding signal is 408.
As for ASSGEAEAS, the figure is 113; as for TGEAPSQP, 134; as for SGTENKPAT, 289.
The sequence TENKPATGE displayed an antibody binding signal of 163.
EAPSQPGASSGE came in with an antibody binding signal of 159.
TPPSGTENKPAT gave an antibody binding signal of 576.
On to PSGTENKPATGE, for which the antibody binding signal turned out to be 358.
Next, PGASSGEAEASSNKN: 148.
As for GSTSSTPP, the figure is 171.
ENKPATGEAPSQP displayed an antibody binding signal of 248.
Next, SSTPPSGTEN: 129; SQPGASSGEAE: 107.
Next, DKKTAAGEAPSPSGA: 123; SQPGASSG: 328.
In the case of NGGSTSSTPPSG, the antibody binding signal turned out to be 400.
Next, APSQPGAS: 286; ANGGSTSSTPPSG: 448.
Next, QPGASSGEA: 185; GSTSSTPPSGT: 249; NKPATGEAP: 319.
